{"source": "PubChem BioAssay AID1346428", "about": "(National Center for Advancing Translational Sciences (NCATS), 2018)", "note": "Values joined by “and” are separate entries in the source; they are usually repeats but may differ in a detail not shown here. Equal entries are not always repeated. In all, about 48,000 compounds went through this assay and about 1,200 (2.5%) were called active. Roughly 2% stayed inconclusive and do not appear here.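 The calls were made as follows: active = activation of at least 60% and not above a set upper limit (about 1 call in 100 departs from these limits); inconclusive = activation of 40% to 60%, or above that upper limit; inactive = activation under 40%.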 This is one part of the list."}
{"biological_target": "Probable G-protein coupled receptor 32 (Homo sapiens) (UniProt O75388)", "sequence (O75388 whole entry, looked up)": "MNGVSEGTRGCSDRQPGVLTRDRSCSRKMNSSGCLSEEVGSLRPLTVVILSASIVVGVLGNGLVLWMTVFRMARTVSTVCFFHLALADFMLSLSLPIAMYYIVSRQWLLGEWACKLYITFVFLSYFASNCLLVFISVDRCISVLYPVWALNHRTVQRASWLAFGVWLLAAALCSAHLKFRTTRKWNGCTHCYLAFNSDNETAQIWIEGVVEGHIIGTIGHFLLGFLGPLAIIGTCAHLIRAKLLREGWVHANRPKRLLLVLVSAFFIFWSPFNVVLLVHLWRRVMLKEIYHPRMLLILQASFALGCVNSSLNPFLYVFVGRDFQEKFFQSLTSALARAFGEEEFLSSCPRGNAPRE", "experiment": "qHTS for Agonists of Human Resolvin D1 Receptor DRV1", "conditions": "CHO-K1 GPR32 beta-arrestin PathHunter luminescence, 90 min; at 76.9 µM; active compounds read high; zero percent set by DMSO-only wells", "procedure,_shortened": "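Using DMSO wells as EC0, agonist-induced signal was taken as chemiluminescence from beta-Gal reconstituted upon beta-arrestin recruitment to GPR32 in CHO-K1 cells after 90 min compound treatment.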"}
{"smiles": "Cc1ccc(CNC(=O)Cn2ncc3c(C)n(Cc4ccc(Cl)cc4)c(C)c3c2=O)cc1", "activation": "inactive: -1.47%"}
{"smiles": "CCCCOC(=O)c1ccc(NS(=O)(=O)c2c(C)nc3scc(C)n3c2=O)cc1", "activation": "inactive: -9.61%"}
{"smiles": "CCCN(C(=O)Cn1ncc2c(=O)oc3ccccc3c21)c1cccc(C)c1", "activation": "inactive: -0.16%"}
{"smiles": "CC(C)c1ccc(NC(=O)CSc2ncc3c(n2)-c2ccccc2N(C)S3(=O)=O)cc1", "activation": "inactive: -7.92%"}
{"smiles": "Cc1ccc(Cl)c2sc(N3CCN(C(=O)C4CC4)CC3)nc12", "activation": "active: 73%"}
{"smiles": "COC(=O)c1c(NC(=O)c2ccc(S(=O)(=O)N3CCCC(C)C3)cc2)sc2c1CCN(C(C)C)C2", "note": "(stereo unspecified)", "activation": "inactive: -2.32%"}
{"smiles": "CSc1ccc(CNCc2c(C(=O)O)c(C)n(Cc3ccc(F)cc3Cl)c2C)cc1", "activation": "inactive: 13.1%"}
{"smiles": "Cc1ccccc1Cn1cc(S(=O)(=O)c2ccc(Cl)cc2)c(=O)c2cc3c(cc21)OCO3", "activation": "inactive: 15.4%"}
{"smiles": "Cc1ccccc1CNC(=O)c1c(C)oc2c1C1=NCCN1C=N2", "activation": "inactive: -12.1%"}
{"smiles": "Cc1c(NC(=O)c2nc3ccccc3n(C)c2=O)cccc1[N+](=O)[O-]", "activation": "inactive: 13.2%"}
{"smiles": "COc1cccc(N2CCN(C(=O)C3CCCN(S(=O)(=O)c4ccc(Br)s4)C3)CC2)c1", "note": "(stereo unspecified)", "activation": "inactive: 17.4%"}
{"smiles": "CCOc1ccc(CNC(=O)Cn2c(=O)c3cccn3c3ccc(F)cc32)cc1", "activation": "inactive: -7.65%"}
{"smiles": "CCOc1ccc(OCC)c(NC(=O)C2CCCN(S(=O)(=O)c3ccc4c(c3)oc(=O)n4C)C2)c1", "note": "(stereo unspecified)", "activation": "inactive: -6.88%"}
{"smiles": "C#CCN(C)Cc1ccccc1", "activation": "inactive: 32.3% and inactive: -7.83%"}
{"smiles": "CCN1c2ccccc2-n2cccc2C12CCN(C(=O)Nc1ccccc1C(F)(F)F)CC2", "activation": "inactive: -19.4%"}
{"smiles": "O=C(Nc1ccc(F)c(Cl)c1)N1CCN(C(=O)c2nsc3ccccc23)CC1", "activation": "inactive: 10.9%"}
{"smiles": "Cc1cc(C)cc(-n2c(SCC(=O)N3CCc4ccccc43)nc3c([nH]c4ccccc43)c2=O)c1", "activation": "inactive: -0.795%"}
{"smiles": "CC(=O)Nc1ccc(Nc2ncnc3c2c(-c2ccccc2)cn3-c2ccccc2)cc1", "activation": "inactive: -30.9%"}
{"smiles": "Cc1cccc(-c2nc(SCCCOc3ccccc3Cl)n3[nH]c(=O)cc3n2)c1", "activation": "inactive: -25.8%"}
{"smiles": "CCn1c(C(=O)N2CCC(C(=O)N3CCN(c4cccc(C)c4C)CC3)CC2)cc2sccc21", "activation": "inactive: 16.7%"}
{"smiles": "CCOc1ccc2nc(N3CCN(C(=O)CS(=O)(=O)c4ccc(F)cc4)CC3)sc2c1", "activation": "inactive: 43.8%"}
{"smiles": "O=c1c2cc3c(cc2nc2sc(Nc4ccc(F)cc4F)nn12)OCO3", "activation": "inactive: 6.5%"}
{"smiles": "Cn1nc(C(=O)N2CCN(c3ccc(Cl)cc3)CC2)c2c1-c1ccccc1SC2", "activation": "inactive: -14.1%"}
{"smiles": "Cc1ccc(C)c(N2CCN(c3ncnc4c3nc3n4CCCCC3)CC2)c1", "activation": "inactive: -1.25%"}
{"smiles": "O=C(C1CCCN(S(=O)(=O)c2cccs2)C1)N1CCN(c2cccc(Cl)c2)CC1", "note": "(stereo unspecified)", "activation": "inactive: 14.6%"}
{"smiles": "NC(=O)CSc1nc2c(oc3ccccc32)c(=O)n1-c1ccccc1F", "activation": "inactive: 8.23%"}
{"smiles": "O=c1[nH]c2ccccc2c2ccccc12", "activation": "inactive: -1.36%"}
{"smiles": "c1ccc(CNc2nc3ccccc3c3nc(-c4ccccc4)nn23)cc1", "activation": "inactive: -8.02%"}
{"smiles": "Cn1c(=O)c2nc(SCC(=O)Nc3cc(Cl)ccc3Cl)n(C)c2n(C)c1=O", "activation": "inactive: -4.84%"}
{"smiles": "COc1ccc(Cl)cc1NC(=O)N1CCC(CN2CCc3ccccc3C2)CC1", "activation": "inactive: -11.1%"}
{"smiles": "CCOc1ccc(C(=O)NCC(c2ccco2)S(=O)(=O)c2ccc(C)cc2)cc1", "note": "(stereo unspecified)", "activation": "inactive: -19.2%"}
{"smiles": "COc1cccc(CNC(=O)CSc2ccc(-c3sc(-c4ccccc4)nc3C)nn2)c1", "activation": "inactive: -6.22%"}
{"smiles": "CCc1ccc(NC(=O)CC2C(=O)N(c3cccc(C)c3)C(=O)N2Cc2cccs2)cc1", "note": "(stereo unspecified)", "activation": "inactive: -14%"}
{"smiles": "Cc1ccc(OCC(=O)Nc2c(C(=O)c3ccccc3)oc3ccccc23)cc1C", "activation": "inactive: -0.699%"}
{"smiles": "CCCCn1c(=O)n(-c2ccc(Br)cc2F)c(=O)c2c3c(sc21)CN(C(C)=O)CC3", "activation": "inactive: -14.3%"}
{"smiles": "CCOC(=O)c1noc2nc(C)n(CC(=O)Nc3cc(Cl)ccc3OC)c(=O)c12", "activation": "inactive: 3.13%"}
{"smiles": "COc1ccc(CNC(=O)Cn2c(SCC(=O)N(C)c3ccccc3)nc3ccccc32)cc1", "activation": "inactive: 1.74%"}
{"smiles": "Cc1csc2nc(COC(=O)c3ccc(NC(=O)COc4ccccc4F)cc3)cc(=O)n12", "activation": "inactive: -18%"}
{"smiles": "Cc1ccc(CNC(=O)C2CCN(S(=O)(=O)N3CCC(C)CC3)CC2)cc1", "activation": "inactive: -14.2%"}
{"smiles": "Oc1c(C(c2ccccc2)N2CCN(Cc3ccccc3)CC2)sc2nc(-c3ccco3)nn12", "note": "(stereo unspecified)", "activation": "inactive: -13%"}
{"smiles": "CC1=C(C(=O)OCC2CCCCC2)C(c2ccc(F)cc2F)CC(=O)N1", "note": "(stereo unspecified)", "activation": "inactive: 13.2%"}
{"smiles": "COc1ccccc1CNC(=O)C(=O)NCC(c1cccs1)S(=O)(=O)c1ccc(F)cc1", "note": "(stereo unspecified)", "activation": "inactive: -2.24%"}
{"smiles": "COc1cc(Cl)c(C)cc1NC(=O)CCc1nc2cccnc2n1-c1ccccc1", "activation": "inactive: 1.98%"}
{"smiles": "NC(=O)NC1N=C([O][Al])NC1=O", "note": "(stereo unspecified)", "activation": "inactive: -4.73%"}
{"smiles": "COc1ccc(NC(=O)Cn2c(SCc3cccc(Cl)c3)nc3ccncc32)c(OC)c1OC", "activation": "inactive: -14%"}
{"smiles": "CC(=O)Nc1nnc(SCc2cc(=O)c3cc(C)ccc3[nH]2)s1", "activation": "inactive: 36%"}
{"smiles": "CC1=C(C(=O)Nc2ccccc2)C(c2ccccc2)n2nc(-c3ccco3)nc2N1", "note": "(stereo unspecified)", "activation": "inactive: 6.76%"}
{"smiles": "CCn1cc(C(=O)O)c(=O)c2ccc(C)nc21", "activation": "inactive: 7.11% and inactive: 0.41%"}
{"smiles": "CCCCNC(=O)C1CCN(S(=O)(=O)c2cc(Br)cc3c2N(C(=O)CC)CC3)CC1", "activation": "inactive: -6%"}
{"smiles": "Cn1c(=O)cc(SCC(=O)NCc2ccc(F)cc2)c2ccc(Cl)cc21", "activation": "inactive: 13.5%"}
{"smiles": "COc1ccc(-c2nnc(SCC(=O)Nc3cccc(F)c3)s2)cc1", "activation": "inactive: 1.85%"}
{"smiles": "Cc1ccc(NCc2cccn2-c2nnc(N3CCCCCC3)s2)cc1", "activation": "inactive: -20.1%"}
{"smiles": "CCOc1ccccc1NC(=O)C(C)Sc1cc(-c2ccccc2)nc(C)n1", "note": "(stereo unspecified)", "activation": "inactive: -14.8%"}
{"smiles": "CCOc1ccccc1NC(=O)CCn1c(-c2ccc(OC)cc2)cc(C(C)=O)c1C", "activation": "inactive: -12.5%"}
{"smiles": "Nc1ncc(S(=O)(=O)NCc2cccc(Cl)c2)cn1", "activation": "inactive: -1.12%"}
{"smiles": "O=C(Cn1c(=O)n2nc(-c3ccccc3)nc2c2ccccc21)Nc1ccccc1C(F)(F)F", "activation": "inactive: -1.14%"}
{"smiles": "Cc1cccc(/C=C/c2ccccc2)n1", "activation": "inactive: -6.82%"}
{"smiles": "CCc1ccc(-n2c(=O)c3c4c(sc3n(Cc3ccc(F)cc3)c2=O)CCCC4)cc1", "activation": "inactive: 20.6%"}
{"smiles": "COc1ccc(CNC(=O)c2cccc(N3CCCS3(=O)=O)c2)cc1", "activation": "inactive: 26.1%"}
{"smiles": "O=C1[C@@H]2CSC(c3ccc(F)cc3)N2C(=O)N1c1ccc(Cl)cc1", "note": "(stereo partly specified)", "activation": "inactive: -1.6%"}
{"smiles": "O=C(O)CCC(=O)OC[C@@H](NC(=O)C(Cl)Cl)[C@H](O)c1ccc([N+](=O)[O-])cc1", "activation": "inactive: -16.2%"}
{"smiles": "Cc1ccc2oc(=O)c3cnn(CC(=O)NCc4ccccc4Cl)c3c2c1", "activation": "inactive: 2.73%"}
{"smiles": "Cc1ccc(-c2nc(CCNC(=O)C(=O)Nc3ccc(C)c(C)c3)cs2)cc1", "activation": "inactive: 5.99%"}
{"smiles": "Cc1ccc(C)n1-c1nnc(N2CCC(C(=O)NCc3ccccc3Cl)CC2)s1", "activation": "inactive: -24.2%"}
{"smiles": "COc1ccc(S(=O)(=O)N(Cc2nc(-c3ccc(C)cc3)no2)C2CCCCC2)cc1", "activation": "inactive: -24.5%"}
{"smiles": "COc1ccc2cc(CCC(C)=O)ccc2c1", "activation": "inactive: 30.7%"}
{"smiles": "CC(=O)c1cc(-c2ccc(F)cc2)n(CCC(=O)NCc2ccccc2C)c1C", "activation": "inactive: -9.72%"}
{"smiles": "CCCCC12CN3CC(C)(CN(C1)C3c1cc(Br)ccc1O)C2=O", "note": "(stereo unspecified)", "activation": "inactive: -27.8%"}
{"smiles": "COc1ccc(NC(=O)c2ccc3nc(CCc4ccccc4)oc3c2)cc1", "activation": "inactive: -18.2%"}
{"smiles": "Cc1ccc(-c2nc3scc(CCNC(=O)c4cccc(Br)c4)n3n2)cc1", "activation": "inactive: -9.58%"}
{"smiles": "CCOC(=O)CNC(=O)Nc1cc(C(=O)NCc2cccc(F)c2)ccc1N1CCCC1", "activation": "inactive: -15.3%"}
{"smiles": "CS(=O)(=O)c1ccc2nc(NC(=O)CS(=O)(=O)c3ccc(Cl)cc3)sc2c1", "activation": "inactive: -4.08%"}
{"smiles": "CCCCCC(C)N", "note": "(stereo unspecified)", "activation": "inactive: -23.5%"}
{"smiles": "O=C(NCC(c1cccnc1)N1CCc2ccccc21)c1ccccc1Br", "note": "(stereo unspecified)", "activation": "inactive: -25.5%"}
{"smiles": "Cc1ccc(N2CCN(c3nc4ccc(C)cc4n4nnnc34)CC2)c(C)c1", "activation": "inactive: -10.1%"}
{"smiles": "Cc1ccc(NC2=C(c3ccc(C(F)(F)F)cc3)C(=O)c3ccccc32)cc1F", "activation": "inactive: -12.3%"}
{"smiles": "CCOc1ccccc1NC(=O)CSc1nc2ccccc2c2nc(CCn3cncc3C)nn12", "activation": "active: 97.2%"}
{"smiles": "O=C(Nc1ccc2nc(SCC(=O)N3CCCC3)sc2c1)c1ccccc1", "activation": "inactive: -6.02%"}
{"smiles": "CCOc1cc(C(=O)Nc2ccc(-c3nc4cc(C)ccc4o3)cc2)cc(OCC)c1OCC", "activation": "inactive: 20.7%"}
{"smiles": "COc1cc2c(-c3ccccc3C)nc3c(c(C)nn3-c3ccccc3)c2cc1OC", "activation": "inactive: -3.41%"}
{"smiles": "CCCN(CCC)C(=O)Cn1c(=O)n(-c2cccc(C(F)(F)F)c2)c(=O)c2c(C)c(C)sc21", "activation": "inactive: 19.9%"}
{"smiles": "O=C(Cn1c(=O)n(Cc2ccco2)c(=O)c2cccnc21)Nc1ccccc1F", "activation": "inactive: -0.298%"}
{"smiles": "Cc1ccc(S(=O)(=O)N2CCC(Oc3ccc(-n4cnnn4)cc3)CC2)cc1", "activation": "inactive: -9.02%"}
{"smiles": "COc1ccc(CC(=O)Nc2ccc3nc(Nc4cccc(Cl)c4)cc(C)c3c2)cc1OC", "activation": "inactive: -2.46%"}
{"smiles": "COc1ccc(CNCCSc2nnnn2-c2ccccc2)cc1", "activation": "inactive: -9.57%"}
{"smiles": "COc1ccccc1-n1cc(-c2ccc(C)cc2)nc1S(=O)(=O)CC(=O)Nc1ccccc1C(F)(F)F", "activation": "inactive: -14%"}
